Source: the supplement of paper PMC7125110
± gives the standard error. Variants at the floor of the assay are shown more often than the library holds them.

B1: glmS ribozyme (parent)
chain: AUAAAAGCGCCAGAACUACAGAAAUGUAGUUGACGAGGAGGAGGUUUAUCGAAUUUUCGGCGGAUGCCUCCAAA

Tests used:
Conditions in all cases: with glucosamine-6-phosphate
glucosamine-6-phosphate [1] = variants of: B1; test: self-cleavage kobs at 40 uM GlcN6P; higher = faster cleavage; RNA array
Summary of the method: (§1)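 Glucosamine-6-phosphate in HEPES/KCl/Mg(OAc)2 buffer, at 40 μM to 10 mM, was flowed over barcoded ribozyme variants transcribed in situ by E. coli RNA polymerase on sequenced MiSeq chips. Tracking was through a hybridised Cy3 probe at 37 °C. kobs, kcat and KM came from exponential decay fits and weighted Michaelis–Menten fits of normalised per-tile medians.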

glucosamine-6-phosphate [2] = variants of: B1; test: self-cleavage kobs at 640 uM GlcN6P; higher = faster cleavage; RNA array
Summary of the method: as §1

glucosamine-6-phosphate [3] = variants of: B1; test: self-cleavage kobs at 160 uM GlcN6P; higher = faster cleavage; RNA array
Summary of the method: as §1

glucosamine-6-phosphate [4] = variants of: B1; test: self-cleavage kobs at 2500 uM GlcN6P; higher = faster cleavage; RNA array
Summary of the method: as §1

glucosamine-6-phosphate [5] = variants of: B1; test: self-cleavage kobs at 10000 uM GlcN6P; higher = faster cleavage; RNA array
Summary of the method: as §1

| Variant | self-cleavage kobs at 40 uM GlcN6P (glucosamine-6-phosphate [1]) [s⁻¹] | self-cleavage kobs at 640 uM GlcN6P (glucosamine-6-phosphate [2]) [s⁻¹] | self-cleavage kobs at 160 uM GlcN6P (glucosamine-6-phosphate [3]) [s⁻¹] | self-cleavage kobs at 2500 uM GlcN6P (glucosamine-6-phosphate [4]) [s⁻¹] | self-cleavage kobs at 10000 uM GlcN6P (glucosamine-6-phosphate [5]) [s⁻¹] |
| --- | --- | --- | --- | --- | --- |
| C10A A33C | < 1e-05 | < 1e-05 | < 1e-05 | < 1e-05 | < 1e-05 |
| C10A A33U G63A | < 1e-05 | < 1e-05 | < 1e-05 |  | < 1e-05 |
| C10A A36C G62C | < 1e-05 |  |  |  |  |
| C10A A39C | < 1e-05 | < 1e-05 |  |  |  |
| C10A A39U U49C | < 1e-05 |  |  |  |  |
| C10A A53C G59A | < 1e-05 |  |  |  |  |
| C10A C11U A33U | < 1e-05 |  |  |  | < 1e-05 |
| C10A C11U U31C A33C U54A G60C | < 1e-05 |  |  |  |  |
| C10A C61A C67G | 4.33e-05 ± 1.9e-05 |  |  |  |  |
| C10A G37C G38A A64U U65C | < 1e-05 |  |  | < 1e-05 |  |
| C10A G38U | < 1e-05 |  |  |  |  |
| C10A G43A A48G | < 1e-05 | < 1e-05 |  | < 1e-05 |  |
| C10A G44U | < 1e-05 | < 1e-05 | < 1e-05 | < 1e-05 | < 1e-05 |
| C10A G44U U55A | < 1e-05 | < 1e-05 | < 1e-05 | < 1e-05 | < 1e-05 |
| C10A U31A | < 1e-05 | < 1e-05 | < 1e-05 |  |  |
| C10A U65C | < 1e-05 |  |  |  |  |
| C10G A33G A48U | < 1e-05 |  |  |  | < 1e-05 |
| C10G A36U | < 1e-05 | < 1e-05 |  | < 1e-05 |  |
| C10G A39C | < 1e-05 |  | < 1e-05 | < 1e-05 | < 1e-05 |

| Variant | self-cleavage kobs at 40 uM GlcN6P (glucosamine-6-phosphate [1]) [s⁻¹] | self-cleavage kobs at 640 uM GlcN6P (glucosamine-6-phosphate [2]) [s⁻¹] | self-cleavage kobs at 160 uM GlcN6P (glucosamine-6-phosphate [3]) [s⁻¹] | self-cleavage kobs at 2500 uM GlcN6P (glucosamine-6-phosphate [4]) [s⁻¹] | self-cleavage kobs at 10000 uM GlcN6P (glucosamine-6-phosphate [5]) [s⁻¹] |
| --- | --- | --- | --- | --- | --- |
| C10G A42C U47A G59U | < 1e-05 |  |  |  |  |
| C10G A48C | < 1e-05 | < 1e-05 |  | < 1e-05 | < 1e-05 |
| C10G A53U | < 1e-05 | < 1e-05 | < 1e-05 |  |  |
| C10G C16U U49C | < 1e-05 | < 1e-05 |  |  |  |
| C10G C34U G38C A64C C67U | < 1e-05 |  |  |  | < 1e-05 |
| C10G C71G | < 1e-05 |  |  |  | < 1e-05 |
| C10G G29A U30G G41U G43U U49G | < 1e-05 |  |  |  | < 1e-05 |
| C10G G29C A33G G63C | < 1e-05 |  |  | < 1e-05 | < 1e-05 |
| C10G G35C G37A G40C G41C G66C | < 1e-05 |  |  |  |  |
| C10G G38A | < 1e-05 | < 1e-05 |  |  |  |
| C10G G43A | < 1e-05 | < 1e-05 | < 1e-05 |  | < 1e-05 |
| C10G G43C C58A | < 1e-05 |  |  |  | < 1e-05 |
| C10G G44A G51U C58U A64U | < 1e-05 | < 1e-05 |  | < 1e-05 | < 1e-05 |
| C10G G44U C68U C70U | < 1e-05 |  |  |  | < 1e-05 |
| C10G G51C G59U | < 1e-05 |  |  |  |  |
| C10G G51U | < 1e-05 |  | < 1e-05 | < 1e-05 | < 1e-05 |
| C10G G60U C68A | < 1e-05 |  |  |  |  |
| C10G G63C | < 1e-05 | < 1e-05 | < 1e-05 | < 1e-05 |  |
| C10G U30A U46C G59U | < 1e-05 | < 1e-05 | < 1e-05 |  | < 1e-05 |

| Variant | self-cleavage kobs at 40 uM GlcN6P (glucosamine-6-phosphate [1]) [s⁻¹] | self-cleavage kobs at 640 uM GlcN6P (glucosamine-6-phosphate [2]) [s⁻¹] | self-cleavage kobs at 160 uM GlcN6P (glucosamine-6-phosphate [3]) [s⁻¹] | self-cleavage kobs at 2500 uM GlcN6P (glucosamine-6-phosphate [4]) [s⁻¹] | self-cleavage kobs at 10000 uM GlcN6P (glucosamine-6-phosphate [5]) [s⁻¹] |
| --- | --- | --- | --- | --- | --- |
| C10G U30G | < 1e-05 | < 1e-05 | < 1e-05 |  |  |
| C10G U31C | < 1e-05 |  |  |  |  |
| C10G U46G | < 1e-05 | < 1e-05 | < 1e-05 |  |  |
| C10G U55G | < 1e-05 |  |  |  |  |
| C10G U69C | < 1e-05 | < 1e-05 |  |  | < 1e-05 |
| C10U A12G G32U A36U C70U | < 1e-05 |  |  |  |  |
| C10U A15C | < 1e-05 |  | < 1e-05 |  |  |
| C10U A33U U54C | < 1e-05 |  |  |  |  |
| C10U A36G | < 1e-05 | < 1e-05 |  |  | < 1e-05 |
| C10U A36U | < 1e-05 |  |  |  |  |
| C10U A42U G43A | < 1e-05 |  |  |  |  |
| C10U A64G | < 1e-05 |  |  | 3.75e-05 ± 5.1e-06 | 3.21e-05 ± 5.8e-06 |
| C10U C16U A33G G37A U49G G62U U69G | < 1e-05 |  |  |  |  |
| C10U C50U | < 1e-05 |  |  |  | < 1e-05 |
| C10U G13C A36C | < 1e-05 |  |  |  |  |
| C10U G32U G40C | < 1e-05 |  |  |  |  |
| C10U G35U G38A A48U | < 1e-05 |  |  |  |  |
| C10U G37C A42C | < 1e-05 |  |  | < 1e-05 | < 1e-05 |
